# In PubChem BioAssay AID1508642 (National Center for Advancing Translational Sciences (NCATS), 2021):
# About 200 (0.47%) of roughly 43,000 compounds were called active. Roughly 12% stayed inconclusive and do not appear here. Calls follow the shape of the dose curve; as a rule, active = well fitted cell-killing curve with a large enough effect; inconclusive = small, poorly fitted or top-dose-only effect, or effect the other way; inactive = flat fitted curve, though single readings scatter. The list shows a part of the results.
# Test: Cell viability qHTS assay in S16 Pmp22-F2sN cells; also: nearly all actives have a fitted effect of over 65% in size
# Settings: S16 Pmp22-F2sN Schwann cells viability, CellTiter-Glo, 24 h; series mostly up to 57.5 µM; activity change, negative = cytotoxicity: at the top concentration
# Method in brief: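 Used to flag compounds lowering reporter output through toxicity, this quantitative HTS measures ATP-based CellTiter-Glo luminescence in S16 Pmp22-F2sN Schwann cells after 24 h compound exposure at 37C.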
# % is scaled to controls: 0 for no effect and ±100 for the full control effect; potency is read from the fitted curve at half-maximal effect.
SMILES,"activity change, negative = cytotoxicity",Potency
CCOc1ccc(C2c3c(-c4cc(C)ccc4O)n[nH]c3C(=O)N2Cc2cccnc2)cc1OCC (stereo unspecified),inactive: 1.59%,
COc1ccccc1NC(=O)CC(C)n1nc(C)cc1C (stereo unspecified),inactive: -0.0889%,
Cc1ccc(N(CC(=O)N2CCN(c3ccc(F)cc3)CC2)S(=O)(=O)c2c(C)noc2C)cc1,inactive: -2.63%,
CC(C)(C)C(=O)NCCc1nc2ccccc2n1CCCCOc1ccccc1,inactive: -1.06%,
Cc1cc(F)ccc1NC(=O)CCS(=O)(=O)c1cc2c(cc1C)NC(=O)CO2,inactive: 1.38%,
COc1ccccc1Nc1ncc2c(n1)CCN(Cc1ccc(C)s1)C2,inactive: 11.9%,
COc1ccc(OC)c(CCNC(=O)CCCn2c(=O)c3cccn3c3ccc(F)cc32)c1,inactive: 1.8%,
CCOC(=O)N1CCC(NC(=O)c2c(C)nn(-c3cccc(C)c3)c2-n2cccc2)CC1,inactive: 6.28%,
Cc1ccc2c(=O)c(C(=O)c3cccc(Cl)c3)cn(CC(=O)NC3CCCCC3)c2n1,inactive: -0.307%,
COC(=O)c1ccccc1NC(=O)c1nc(-c2ccc(C)cc2)n2c1CCCCC2,inactive: 1.38%,
CC(NC(=O)Cn1c(=O)oc2cc(S(=O)(=O)N3CCCCCC3)ccc21)c1ccccc1 (stereo unspecified),inactive: 11.5%,
CC(NC(=O)c1cc2c(=O)n3ccccc3nc2n(C(C)C)c1=N)c1ccccc1 (stereo unspecified),inactive: 2.97%,
COCCNC(=O)Cn1nc(-c2ccccc2)c2ccccc2c1=O,inactive: -1.3%,
COc1cc(OC)c(C2CC(=O)Nc3ccc4ccccc4c32)cc1OC (stereo unspecified),inactive: 19.2%,
CC(=O)N1c2ccccc2C(=O)C1N1CCN(c2cccc(Cl)c2)CC1 (stereo unspecified),inactive: 10.2%,
Cc1cccc(OC(=O)CSc2nnc(-c3ccc4c(c3)OCO4)o2)c1C,inactive: 0.0037%,
Cc1ccc(C2=NN(CC(=O)NCCc3ccccc3)C(=O)CC2)cc1,inactive: 10.6%,
COc1cccc(Cn2c(=O)n(CC3CCC(C(=O)NC(C)C)CC3)c(=O)c3sccc32)c1 (stereo unspecified),inactive: -0.283%,
Cc1cn(C)c(CC(=O)NCc2ccc(Cl)cc2)c1C(=O)O,inactive: -5.15%,
Cc1ccc(CCNS(=O)(=O)c2ccc3c(c2)C(C(C)C)C(=O)N3)cc1 (stereo unspecified),inactive: -17.1%,
COc1cc(NC(=O)CN2C(=O)CCc3cc(Br)ccc32)cc(OC)c1OC,inactive: -20.8%,
Cc1cccc(NC(=O)CN2C(=O)C3(SCC(=O)N3c3ccccc3)c3ccccc32)c1 (stereo unspecified),inactive: 1.48%,
Cc1ccc(Cn2c(C(=O)O)c(CNCc3ccc(C)o3)c3ccc(C)cc32)cc1,inactive: 26.8%,
Cc1ccc(S(=O)(=O)N2CCN(Cc3ccccc3Cl)CC2)cc1,inactive: -0.295%,

SMILES,"activity change, negative = cytotoxicity",Potency
CCOC(=O)c1c(NC(=O)c2cc(=O)c3cc(C)ccc3o2)sc2c1CCCC2,inactive: -16.6%,
Cc1ccc2oc(C(=O)Nc3sc4c(c3C(=O)NCC3CCCO3)CCC4)cc(=O)c2c1 (stereo unspecified),inactive: -3.39%,
CCN(CC)c1ccc(NC(=O)CN2CCN(CC(=O)Nc3ccc(Cl)cc3)CC2)cc1,inactive: -0.188%,
COc1ccc(NC(=O)c2cccc(N3CCCS3(=O)=O)c2)c(OC)c1,inactive: 0.0607%,
O=C(NCCC1=CCCCC1)c1ccc2c(c1)sc1nc(-c3ccc(F)cc3)cn12,inactive: 3.77%,
CC(=O)Nc1ccccc1-c1nc2ccccc2n(C(C)C(=O)Nc2ccccc2C(F)(F)F)c1=O (stereo unspecified),inactive: -2.6%,
COc1ccc(-c2c(C)c3ccc(O)c(CN4CCC(C)CC4)c3oc2=O)cc1OC,inactive: 3.71%,
COc1cccc(CNC(=O)c2ccc(-c3nc(CSc4ccccc4)c(C)o3)cc2)c1,inactive: -1.41%,
COc1cc2c(c(OC)c1)C(c1cccc(F)c1F)CC(=O)N2 (stereo unspecified),inactive: 24.2%,
CN1CCN(c2ncnc3c2cnn3-c2cccc(Cl)c2)CC1,inactive: 7.22%,
COc1cc(OC)c(OC)cc1/C=C/c1nc2cc3ccccc3cc2c(=O)n1-c1ccccc1Br,inactive: -0.708%,
Cc1ccc(CNC(=O)c2cc(=O)c3cc(C)ccc3o2)cc1,inactive: -0.322%,
Cc1ccc(NC(=O)C2CCN(S(=O)(=O)c3cccc4nsnc34)CC2)cc1F,inactive: 0.742%,
CCCNC(=O)c1ccc2c(c1)nc1n2CCCCC1,inactive: -3.43%,
COc1cccc(CNC(=O)Cn2ncn3nc(-c4cccs4)cc3c2=O)c1,inactive: -21.1%,
Oc1c(C(Nc2ccccn2)c2ccccc2F)ccc2cccnc12 (stereo unspecified),,active: 2 µM
COc1ccc(Cn2ccc3nc(C)c(C(=O)Nc4cccc(SC)c4)cc3c2=O)cc1,inactive: 16.1%,
CCN1CCN(c2oc(-c3ccc(COc4ccccc4C)o3)nc2C#N)CC1,inactive: -20.9%,
CC(=O)c1ccc(NS(=O)(=O)c2ccc3c(c2)NC(=O)CCS3)cc1,inactive: 13.4%,
COc1ccc(NC(=O)C(=O)NCCc2csc3nc(-c4ccccc4F)nn23)cc1OC,inactive: 6.22%,
CCN(CC)C(=O)c1c(-c2ccccc2)c(-c2ccccc2)nn(CC)c1=O,inactive: -0.101%,
COc1ccccc1N1CCN(C(=O)CN2C(=O)COc3ccc(S(=O)(=O)N4CCOCC4)cc32)CC1,inactive: 4.22%,
COc1ccc(CCC(=O)NC2CC(=O)N(c3ccc(F)cc3)C2)cc1 (stereo unspecified),inactive: 0.216%,
CCN(Cc1nc(-c2ccc(OC)c(OC)c2)no1)S(=O)(=O)c1ccc(OC)cc1,inactive: -14.5%,

SMILES,"activity change, negative = cytotoxicity",Potency
COc1ccc(-c2nc3sc(CCNC(=O)c4ccc(Br)o4)c(C)n3n2)cc1,inactive: -22.2%,
Cc1cccc(S(=O)(=O)c2cn(Cc3ccccc3)c3cc(N4CCCCC4)c(F)cc3c2=O)c1,inactive: -6.67%,
CC(C)(C)OC(=O)N1CCC(c2c(C(=O)NC3CCCCC3)cnn2-c2ccc(F)cc2F)CC1,inactive: 0.394%,
COc1cc(CNC(=O)c2cnc(SC)nc2-c2ccccc2)cc(OC)c1OC,inactive: 3.41%,
O=C(CSc1nc(=O)n(Cc2ccccn2)c2c1CCC2)Nc1ccccc1,inactive: 4.21%,
N#Cc1c(-c2ccccc2)cc(-c2ccccc2)nc1SCC(O)CS(=O)(=O)Cc1ccc(Cl)cc1 (stereo unspecified),inactive: 0.809%,
Cc1cccc(C)c1NC(=O)Cn1nnc(S(=O)(=O)c2ccccc2)c1N,inactive: -16.5%,
O=C1CN(C(=O)c2ccc(S(=O)(=O)N3CCCC3)cc2)C(c2ccccc2)c2cc(F)ccc2N1 (stereo unspecified),inactive: 0.604%,
Cc1c(C(=O)NCCN(C)C)oc2c1-c1nn(Cc3cccc(Cl)c3)cc1CC2,inactive: 1.53%,
Cc1nc(-c2ccc(F)cc2)sc1CCNC(=O)Cc1ccc(F)cc1,inactive: -10.7%,
CCOC(=O)c1cc2c(=O)n3ccccc3nc2n(C(C)C)c1=NC(=O)C(C)(C)Oc1ccc(Cl)cc1,inactive: 11.9%,
CN(C)c1ccc(Nc2ncnc3c2c(-c2ccccc2)cn3-c2cccc(Cl)c2)cc1,inactive: 0.956%,
CCn1cc(/C=C(\NC(=O)c2cc(OC)c(OC)c(OC)c2)C(=O)NCCCn2ccnc2)c2ccccc21,inactive: 15.1%,
Cc1cc(NC(=O)Cc2ccccc2)cc(-c2nc3ccccc3o2)c1O,inactive: -3.45%,
Cc1cccc(N2CCN(C(=O)c3cc(S(=O)(=O)N4CCC(C)CC4)cn3C)CC2)c1C,inactive: -1.65%,
O=C(Nc1ccccc1F)c1nc(S(=O)(=O)Cc2ccccc2F)ncc1Cl,,active: 6.31 µM
CCN(C(=O)c1noc2c1COc1ccc(C)cc1-2)c1cccc(C)c1,inactive: 16.7%,
Clc1cccc(-n2ncc3c(NC4CCCCC4)ncnc32)c1,inactive: -5.89%,
CCOc1ccc(-c2nnc(SCC(=O)NC3CCCC3)nc2-c2ccc(OCC)c(OC)c2)cc1OC,inactive: 10.2%,
CCOc1ccc(CCNC(=O)C2CCN(c3ncnc4c3nc3n4CCCCC3)CC2)cc1,inactive: 1.83%,
CCCNC(=O)c1ccc2c(c1)N=C(C)c1c(C)ccc(C)c1S2,inactive: 3.28%,
O=C(NCc1ccc(Cl)cc1)C(=O)NCC(c1cccs1)S(=O)(=O)c1ccc(Cl)cc1 (stereo unspecified),inactive: -1.14%,
CCN(CC)c1nn2c(=O)c(C(=O)NCc3ccc(OC)cc3OC)cnc2s1,inactive: 4.86%,
Clc1ccccc1N1CCN(c2ncnc3c2c(-c2ccccc2)cn3-c2ccccc2)CC1,inactive: -6.32%,

SMILES,"activity change, negative = cytotoxicity",Potency
Cc1ccccc1NC(=O)CCC(=O)N1CCSc2ccccc21,inactive: 0.601%,
Cc1ccc(S(=O)(=O)N(CC(=O)Nc2ccc(C(C)C)cc2)Cc2ccccc2)cc1,inactive: -16.2%,
CC(=O)N1c2ccc(S(=O)(=O)NCC3CCC(C(=O)NC(C)(C)C)CC3)cc2CC1C (stereo unspecified),inactive: -0.977%,
O=C(NCC(c1cccs1)S(=O)(=O)c1cccs1)c1ccccc1F (stereo unspecified),inactive: -0.656%,
COc1ccccc1CNC(=O)c1ccccc1NC(=O)c1nsc2ccccc12,inactive: -1.64%,
Cc1ccc(-n2nc3ccc(NC(=O)c4oc5ccccc5c4C)cc3n2)cc1,inactive: 25.6%,
Cc1ccc(NC(=O)c2c(NC(=O)c3ccco3)sc3c2CCC(C(C)(C)C)C3)c(C)c1 (stereo unspecified),inactive: -10.6%,
COc1cc(OC)c(NC(=O)c2nnn(Cc3ccc(C)cc3)c2N)cc1Cl,inactive: 10.6%,
Cc1ccc(NC(=O)CN2C(=O)CSc3ccc(S(=O)(=O)N4CCCC4)cc32)cc1F,inactive: -4.24%,
Cc1ccccc1Cn1cc(CCC(=O)NC(C)c2ccccc2)c2ccccc21 (stereo unspecified),inactive: 0.401%,
Cc1cc(C)c2oc(-c3cccc(NC(=O)c4ccc(Br)o4)c3)nc2c1,inactive: -3.1%,
CCC(C)c1ccc(OCC(=O)Nc2cccc(-c3nc4ncccc4o3)c2)cc1 (stereo unspecified),inactive: -2.59%,
O=C(Cc1ccc(F)cc1)NC1CC(=O)N(c2ccc3c(c2)OCCO3)C1 (stereo unspecified),inactive: -2.24%,
COc1cccc(-c2cn3c(n2)sc2cc(C(=O)NC4CCCCCC4)ccc23)c1,inactive: 4.52%,
COc1ccc(Br)cc1CNC(=O)Cn1c(=O)c2cccn2c2ccc(F)cc21,inactive: 3.61%,
CC1=C(c2ccc(C)cc2)S(=O)(=O)N(Cc2ccc(C(=O)NCc3cccc(C)c3)cc2)C1=O,inactive: -6.73%,
Cc1c(Cl)cccc1NC(=O)N1CCC(CN2CCCC2)CC1,inactive: 3.47%,
COc1cccc(-n2nnc3c(sc4nc(C)cc(C)c43)c2=O)c1,inactive: -2.22%,
COc1ccc(N2CCN(C(=O)c3cnc(N4CCCC4)nc3C)CC2)cc1,inactive: 4.38%,
COc1ccc(-c2cc3nc(-c4ccccc4)cc(C(F)(F)F)n3n2)cc1,inactive: 3.35%,
COc1ccc(CCNC(=O)Cc2c(C)c3c(cc(C)c4c(C)coc43)oc2=O)cc1,inactive: 12.8%,
O=C(Nc1sc2c(c1C(=O)Nc1ccccc1Cl)CCCC2)c1ccccc1F,inactive: 7.87%,
COc1ccc(CCNC(=O)CN(c2ccccc2OC)S(=O)(=O)c2ccc(C)cc2)cc1,inactive: -21.4%,
COC(=O)c1c(NC(=O)c2cc(=O)c3ccc(C)c(C)c3o2)sc2c1CCCC2,inactive: -0.544%,
